# Among all 140,000 compounds or so, about 240 (0.17%) were called active. This list was built around the results that the source calls inconclusive (neither active nor inactive); the mix of calls is not that of the screen. Calls follow the shape of the dose curve; as a rule, active = well fitted inhibition curve with a large enough effect; inconclusive = small, poorly fitted or top-dose-only effect; inactive = no such curve, though single readings can be large or run the other way. Where the call is inconclusive, the potency comes from a doubtful curve fit.
# Assay: Primary qHTS assay for inhibitors of alpha-synuclein gene (SNCA) expression; also: nearly all actives have a fitted effect of over 45% in size
# Settings: HEK-293 SNCA-luciferase knock-in, luminescence, 24 h; series mostly up to 57.2 µM
# Potency is read from the fitted curve at half-maximal effect; tags tell the direction and shape of the fitted curve.
row,Compound,Potency
1,CN(C)c1ccc2ncc(Nc3ccc(Cl)cn3)n2n1,inactive
2,Cn1cnc(S(=O)(=O)N2CCC(N3C(=O)C4(CCCC4)C3c3ccccc3)CC2)c1 (configuration not stated),"inconclusive: 39.8 µM [inhibitor, single point]"
3,CC(C)Cc1nc(CN(C)C(=O)c2cccc(CCC(C)(C)O)c2)no1,"inconclusive: 3.98 µM [inhibitor, single point]"
4,COc1ccc(-c2cc(C[C@@H]3CC[C@@H]4OC(=O)NC[C@H]4O3)no2)cc1,inactive
5,O=C1c2cnc(-c3cccc(CO)c3)nc2OCCN1Cc1ccccc1,inactive
6,CC(C)C[C@@H](C(=O)N[C@H](C(=O)OC1CCCC1)c1ccccc1)[C@H](O)C(=O)NO,"inconclusive: 42.9 µM [inhibitor, single point]"
7,O=C(N[C@@H]1CCC[C@@H]1C(=O)NCCc1ccc(Cl)cc1)c1ccncc1,inactive
8,Cc1ccccc1S(=O)(=O)N1CCC(CCC(=O)N2CCc3ccccc3C2)CC1,"inconclusive: 2.51 µM [inhibitor, partial curve, poor fit]"
9,O=C(Nc1ccc(Cl)cc1)N1CCn2c(nn(-c3ccc(C(F)(F)F)cc3)c2=O)C1,"inconclusive: 3.16 µM [inhibitor, full curve, poor fit]"
10,CCN1C(C(=O)c2ccccc2)=C(OC(=O)c2ccc(OC)cc2)c2ccccc2S1(=O)=O,"inconclusive: 39.8 µM [inhibitor, single point]"
11,CCc1noc(-c2ccn3c(CNC(=O)c4ccc(N(CC)CC)cc4)nnc3c2)n1,"inconclusive: 5.62 µM [inhibitor, full curve, poor fit]"
12,COCC(=O)N1CC[C@H](c2nc3ccc(C(F)(F)F)cc3[nH]2)C1,inactive
13,CC1=NS(=O)(=O)N(Cc2ccccc2)C=C1C(=O)OCc1noc(CC2CCCCC2)n1,"inconclusive: 39.8 µM [inhibitor, single point]"
14,O=C1NC(=NC2CCCC2)C2(CCN(Cc3ccccc3)C2)N1c1cccnc1 (configuration not stated),inactive
15,Cc1n[nH]c(C)c1CCC(=O)NC1CCCc2c1[nH]c1c(Cl)cccc21 (configuration not stated),"inconclusive: 20 µM [inhibitor, partial curve, poor fit]"
16,CC(=O)c1cccc(NS(=O)(=O)c2ccc3[nH]c4c(c3c2)CCCCCC4)c1,"inconclusive: 0.282 µM [inhibitor, full curve]"
17,Cc1cc(C)c2[nH]c(C(=O)NCc3ccc(C(=O)N(C)C)o3)c(C)c2c1,inactive
18,Cc1[nH]c(-c2ccccc2)nc1C(=O)N[C@H](c1cnn(C)c1)C1CC(O)C1 (some centres not stated),inactive
19,Cc1cc(C)cc(C(=O)NC2CCN(c3cc(-c4ccc(F)cc4)[nH]n3)C2)c1 (configuration not stated),"inconclusive: 39.8 µM [inhibitor, partial curve, poor fit]"
20,Cc1ccc(NC(=O)NCc2ccc3c(c2)CCN3C(=O)c2ccccc2)c(Cl)c1,"inconclusive: 39.8 µM [inhibitor, single point]"
21,COc1ccc(NC(=O)CCS(=O)(=O)c2nc(-c3cccs3)cc(C(F)(F)F)n2)cc1OC,"inconclusive: 39.8 µM [inhibitor, single point]"
22,COc1ccccc1NC(=O)Cn1c(=O)n(Cc2ccc3c(c2)OCO3)c(=O)c2oc3ccccc3c21,"inconclusive: 28.2 µM [inhibitor, single point]"
23,CCc1c(C)sc2c1CCN(C(=O)Nc1cc(OC)c(OC)c(OC)c1)C2c1ccccc1 (configuration not stated),"inconclusive: 39.8 µM [inhibitor, single point]"

row,Compound,Potency
1,Cn1c(=O)c2c(c3ccccc31)OC(=O)CC2c1ccc(C(F)(F)F)cc1 (configuration not stated),"inconclusive: 7.08 µM [inhibitor, single point]"
2,Cc1nn(C)cc1CN(C)CC1(O)CCCN(Cc2cccc(F)c2F)C1=O (configuration not stated),"inconclusive: 0.708 µM [inhibitor, full curve, poor fit]"
3,O=C(Cc1cccc(F)c1)N1CCC(c2n[nH]c(=O)n2-c2ccccc2)CC1,"inconclusive: 25.1 µM [inhibitor, single point]"
4,Cc1nn(-c2ccc(F)cc2)c(C)c1[C@@H]1C=C[C@@H](NS(=O)(=O)c2cccs2)C1,inactive
5,O=C(NC1CC1)C1CCN(Cc2ccccc2-c2ccccc2F)CC1,inactive
6,Cc1cccc(C(=O)N2CC(N(Cc3ccccn3)S(C)(=O)=O)C2)c1,inactive
7,O=C(Cn1nc2n(c1=O)CCCC2)Nc1cccc(C(F)(F)F)c1,"inconclusive: 39.8 µM [inhibitor, single point]"
8,O=C(O)CCCC(=O)N[C@H]1CO[C@H]2[C@@H]1OC[C@@H]2Nc1nccc(-c2ccc3c(c2)OCO3)n1,"inconclusive: 39.8 µM [inhibitor, single point]"
9,COc1ccccc1C(=O)N1CCCC2(CC(c3cccnc3)=NO2)C1 (configuration not stated),inactive
10,COc1ccccc1CNC(=O)Cn1c(-c2cccs2)cc2cc(F)ccc21,"inconclusive: 7.08 µM [inhibitor, single point]"
11,CCOc1ccccc1NC(=O)Cn1nc2c3cc(F)ccc3n(Cc3cccc(C)c3)cc-2c1=O,inactive
12,N#Cc1cccnc1-c1cccc(C(=O)NCCNC(=O)Cc2ccccn2)c1,inactive
13,Cc1ccc(C)c(C(=O)NCc2nnc3cc(-c4nc(C(C)C)no4)ccn23)c1,inactive
14,CN(CC1CCOC1)S(=O)(=O)c1ccccc1Br (configuration not stated),"inconclusive: 3.16 µM [inhibitor, partial curve, poor fit]"
15,COc1cc2c(C(=O)N3CCN(c4ccc(C)cc4)C(C)C3)cn(CC(C)C)c(=O)c2cc1OC (configuration not stated),"inconclusive: 15.8 µM [inhibitor, partial curve, poor fit]"
16,CCCCCNC(=O)N1CCC(CN(Cc2ccc(Cl)cc2)Cc2ccc([N+](=O)[O-])s2)C1 (configuration not stated),"inconclusive: 48.2 µM [inhibitor, single point]"
17,O=C(c1nc2cccnc2n(CCc2ccccc2)c1=O)N1CCN(Cc2ccccc2)CC1,inactive
18,CCOc1ccc(NC(=O)CN2C(=O)NC(c3ccccc3OCC)C3=C2COC3=O)cc1 (configuration not stated),inactive
19,Cc1ccc(C)c(N2CCN(C(=O)c3ccc4c(c3)c(C)c(C)n4C)CC2)c1,"inconclusive: 25.1 µM [inhibitor, single point]"
20,O=S(=O)(c1ccccc1C(F)(F)F)N1CC(c2nc(-c3ccncc3)no2)C1,"inconclusive: 39.8 µM [inhibitor, single point]"
21,COC(=O)[C@H](Cc1ccc(OC)cc1)NC(=O)[C@H]1CN(S(=O)(=O)c2ccccc2)CCN1C(=O)c1cccs1,"inconclusive: 39.8 µM [inhibitor, partial curve, poor fit]"
22,COCCNc1ncccc1-c1noc([C@@H]2CCCN2C2CCN(C(C)=O)CC2)n1,inactive
23,CCOc1ccc(NC(=O)NC(C)c2c(-n3cccc3)sc(C)c2C)cc1 (configuration not stated),"inconclusive: 25.1 µM [inhibitor, partial curve, poor fit]"

row,Compound,Potency
1,COc1ccc(-c2[nH]nc3ncc(-c4ccccc4F)nc23)cc1F,"inconclusive: 12.6 µM [inhibitor, partial curve, poor fit]"
2,CC(=O)Nc1ccc(CN2CCCCC23Cc2ccccc2CNC3=O)cc1 (configuration not stated),inactive
3,CS(=O)(=O)N1CCC(C2CCN(C(=O)c3ccc(F)c(F)c3)C2)CC1 (configuration not stated),"inconclusive: 39.8 µM [inhibitor, single point]"
4,COc1ccc(-c2c(C)nn3c(C(F)(F)F)cc(-c4ccc(Br)cc4)nc23)cc1,"inconclusive: 31.6 µM [inhibitor, single point]"
5,Cc1nc2nc(SCC(=O)NCc3ccccc3)nn2c(C)c1Cc1ccccc1Cl,inactive
6,Cc1ccccc1-c1noc(CN2CCCC2=O)n1,"inconclusive: 15.8 µM [inhibitor, single point]"
7,CCN(CC)CCOC(=O)c1cc(Cl)c(N)cc1OC,"inconclusive: 3.16 µM [inhibitor, full curve]"
8,CC1Oc2ccc(NC(=O)Cc3ccc(F)cc3)cc2CN(CC2CC2)C1=O (configuration not stated),inactive
9,COc1cccc(N2C(=O)NC(=NC3CCCCC3)C23CCCN(Cc2ccc(F)cc2)C3)c1 (configuration not stated),"inconclusive: 7.94 µM [inhibitor, full curve, poor fit]"
10,CC(NC(=O)CCn1c(=O)c2cccn2c2ccc(F)cc21)c1ccccc1 (configuration not stated),"inconclusive: 39.8 µM [inhibitor, single point]"
11,COc1ccccc1-c1[nH]nc2ncc(C(=O)NCC3CCOCC3)nc12,inactive
12,COCc1noc([C@@H]2CN(Cc3cc(C)nn3C)C[C@H]2C(N)=O)n1,"inconclusive: 8.91 µM [inhibitor, single point]"
13,CCOc1ccc(-c2ccc(NS(=O)(=O)c3cc(C)c(C)cc3C)cc2)nn1,"inconclusive: 39.8 µM [inhibitor, single point]"
14,c1ccc(CCCc2noc(-c3ccc(N4CCCNCC4)nc3)n2)cc1,inactive
15,CCOc1ccc(CCNC(=O)c2ccc(CS(=O)(=O)Cc3ccccc3Cl)o2)cc1OCC,"inconclusive: 7.08 µM [inhibitor, single point]"
16,CCC(Cn1ccnc1)NC(=O)c1cccc(NCc2ccc(F)cc2)c1 (configuration not stated),inactive
17,CN(Cc1ccccc1C(F)(F)F)C(=O)c1ccccc1Cl,inactive
18,O=C(NCCc1ccccn1)[C@@H]1C[C@@H](c2ccc(F)cc2)N(Cc2ccccc2)C1,"inconclusive: 7.08 µM [inhibitor, single point]"
19,C=CCC(=O)N1CCCC1C(=O)Nc1ccccc1-c1ccc(OC)cc1 (configuration not stated),inactive
20,CC(C)c1nc2c(c(-c3ccc(O)cc3)n1)CCN(C(=O)c1ccccc1)CC2,inactive
21,CCCc1noc(-c2cn(C3CCN(C(=O)c4ccc(F)c(F)c4)CC3)nn2)n1,inactive

# Source: PubChem BioAssay AID1671194 (National Center for Advancing Translational Sciences (NCATS), 2021)
